The values below come from the GPR68 mutational scans of Howard et al. (2025).

B1: GPR68, Q15743 (parent)
chain: MGNITADNSSMSCTIDHTIHQTLAPVVYVTVLVVGFPANCLSLYFGYLQIKARNELGVYLCNLTVADLFYICSLPFWLQYVLQHDNWSHGDLSCQVCGILLYENIYISVGFLCCISVDRYLAVAHPFRFHQFRTLKAAVGVSVVIWAKELLTSIYFLMHEEVIEDENQHRVCFEHYPIQAWQRAINYYRFLVGFLFPICLLLASYQGILRAVRRSHGTQKSRKDQIQRLVLSTVVIFLACFLPYHVLLLVRSVWEASCDFAKGVFNAYHFSLLLTSFNCVADPVLYCFVSETTHRDLARLRGACLAFLTCSRTGRAREAYPLGAPEASGKSGAQGEEPELLTKLHPAFQTPNSPGSGGFPTGRLA

The variants in data set [1] derive from B1. As to the kind of experiment: cAMP reporter score (Enrich2 score, wild type = 0); higher = more signal; HEK293T, FACS bins.
The variants in data set [2] derive from B1. The data set is described as follows: surface expression score (Enrich2 score, wild type = 0); higher = more signal; HEK293T, FACS bins.

Scores with a large standard error are left out. Two further conditions of the source, in which the scores hardly spread, are not listed. Read del as a deletion of the residues named and ins as an insertion between two positions. For part of these data: The concentration of ogerin is not given here.

N54I: the cAMP reporter score is -1.22 in data set [1] (pH 5.5); -1.41 in data set [1] (pH 6, modulator: ogerin); -1.78 in data set [1] (pH 6.5, modulator: ogerin). In data set [2], the surface expression score was -1.73.
The like results for N54F were, in that order, -1.67, -2.11, -0.511 and -0.781.
Regarding N54S, the cAMP reporter score in data set [1] (pH 5.5) is -0.913; in data set [1] (pH 6) it was -0.356; in data set [1] (pH 6, modulator: ogerin) it was -1.1; in data set [1] (pH 6.5, modulator: ogerin), -0.845. Further, the surface expression score in data set [2] is -1.4.
Taken in the same sequence, the figures for N54G were -0.723, -1.04, -1.41, -0.781 and -2.21.
Taken in the same sequence, the figures for N54M were 0.057, -1.02, -0.905, -0.793 and -2.68.
As for N54A, the cAMP reporter score in data set [1] (pH 5.5) is -0.427; in data set [1] (pH 6), -1.15; in data set [1] (pH 6, modulator: ogerin), -0.794; in data set [1] (pH 6.5, modulator: ogerin), -1.51. The surface expression score in data set [2] is -2.58.
Taken in the same sequence, the figures for Q49_I50insGSG were -1.52, -1.11, -1.31, -1.19 and -2.09.
Turning to F36_P37del, the cAMP reporter score in data set [1] (pH 5.5) was -1.06; in data set [1] (pH 6), -0.463; in data set [1] (pH 6, modulator: ogerin), -1.21; in data set [1] (pH 6.5, modulator: ogerin) it was -0.875. Further, the surface expression score in data set [2] is -2.33.
Consider C40_L41del, for which the cAMP reporter score was -1.07 in data set [1] (pH 5.5); -0.775 in data set [1] (pH 6); -0.274 in data set [1] (pH 6, modulator: ogerin); -1.15 in data set [1] (pH 6.5, modulator: ogerin). Moreover, in data set [2], the surface expression score is -2.62.
With C40_L41insG, the cAMP reporter score in data set [1] (pH 5.5) is -1.44; in data set [1] (pH 6) it was -0.793; in data set [1] (pH 6, modulator: ogerin), -1.42; in data set [1] (pH 6.5, modulator: ogerin), -0.932. Also, the surface expression score in data set [2] is -2.42.
Consider N39I, for which the cAMP reporter score in data set [1] (pH 5.5) is -1.12; in data set [1] (pH 6) it was -0.438; in data set [1] (pH 6, modulator: ogerin), -1.16; in data set [1] (pH 6.5, modulator: ogerin), -0.38. Besides, the surface expression score in data set [2] is -2.13.
The like results for N39A were, in that order, -1.11, -0.533, -1.18, -0.918 and 0.886.
For N39D, the cAMP reporter score is -2.14 in data set [1] (pH 5.5); -1.62 in data set [1] (pH 6, modulator: ogerin); -0.775 in data set [1] (pH 6.5, modulator: ogerin). Also, the surface expression score in data set [2] was -2.43.
As to N39T, the cAMP reporter score in data set [1] (pH 5.5) is -1.13; in data set [1] (pH 6) it was -0.761; in data set [1] (pH 6, modulator: ogerin), -1.11; in data set [1] (pH 6.5, modulator: ogerin), -0.554. The surface expression score in data set [2] was -1.11.
N39W: the cAMP reporter score in data set [1] (pH 5.5) was -1.13; in data set [1] (pH 6) it was -0.665; in data set [1] (pH 6, modulator: ogerin), -1.03; in data set [1] (pH 6.5, modulator: ogerin), -0.835. Also, the surface expression score in data set [2] is -2.24.
With N39E, the cAMP reporter score in data set [1] (pH 5.5) was -2.21; in data set [1] (pH 6) it was -2; in data set [1] (pH 6, modulator: ogerin), -0.94; in data set [1] (pH 6.5, modulator: ogerin), -0.791. The surface expression score in data set [2] was -2.14.
The like results for N39C were, in that order, -0.585, -1.29, -0.645, -1.36 and 0.18.
For N39V, the cAMP reporter score is -1.39 in data set [1] (pH 5.5); -1.01 in data set [1] (pH 6); -1.37 in data set [1] (pH 6, modulator: ogerin); -1.04 in data set [1] (pH 6.5, modulator: ogerin). In addition, in data set [2], the surface expression score was -2.01.
Consider N39S, for which the cAMP reporter score in data set [1] (pH 5.5) was -0.635; in data set [1] (pH 6), -0.562; in data set [1] (pH 6, modulator: ogerin), -0.512; in data set [1] (pH 6.5, modulator: ogerin) it was -0.604. Besides, in data set [2], the surface expression score came out at 0.355.
Take N39Q: the cAMP reporter score in data set [1] (pH 5.5) is -1.18; in data set [1] (pH 6), -0.2; in data set [1] (pH 6, modulator: ogerin), -1.94; in data set [1] (pH 6.5, modulator: ogerin), -0.769. In addition, the surface expression score in data set [2] is -0.82.
N39K: the cAMP reporter score is -1.4 in data set [1] (pH 5.5); -0.69 in data set [1] (pH 6); -1.5 in data set [1] (pH 6, modulator: ogerin); -0.33 in data set [1] (pH 6.5, modulator: ogerin). Moreover, the surface expression score in data set [2] is -1.9.
Taken in the same sequence, the figures for N39M were -0.892, -0.036, -0.963, -1.12 and -2.07.
N39F: the cAMP reporter score was -0.735 in data set [1] (pH 5.5); -0.611 in data set [1] (pH 6); -1.28 in data set [1] (pH 6, modulator: ogerin); -1.06 in data set [1] (pH 6.5, modulator: ogerin). Besides, the surface expression score in data set [2] is -2.28.
For the variant N39G, the cAMP reporter score in data set [1] (pH 5.5) was -1.24; in data set [1] (pH 6), -0.634; in data set [1] (pH 6, modulator: ogerin), -1.18; in data set [1] (pH 6.5, modulator: ogerin), -0.826. Further, the surface expression score in data set [2] is -0.088.
As to N39H, the cAMP reporter score in data set [1] (pH 5.5) was -0.956; in data set [1] (pH 6), -0.324; in data set [1] (pH 6, modulator: ogerin), -1.15; in data set [1] (pH 6.5, modulator: ogerin), -0.427. Moreover, in data set [2], the surface expression score worked out at 0.094.
For the variant N39Y, the cAMP reporter score in data set [1] (pH 5.5) was -1.13; in data set [1] (pH 6), -0.767; in data set [1] (pH 6, modulator: ogerin), -0.871; in data set [1] (pH 6.5, modulator: ogerin), -0.951. Moreover, the surface expression score in data set [2] was -2.12.
With N39R, the cAMP reporter score in data set [1] (pH 5.5) was -1.24; in data set [1] (pH 6), -0.605; in data set [1] (pH 6, modulator: ogerin) it was -1.43; in data set [1] (pH 6.5, modulator: ogerin) it was -0.602. Further, in data set [2], the surface expression score was -2.54.
On to N39P, for which the cAMP reporter score in data set [1] (pH 5.5) is -0.934; in data set [1] (pH 6), -1.75; in data set [1] (pH 6, modulator: ogerin) it was -2.45; in data set [1] (pH 6.5, modulator: ogerin) it was -0.648. Besides, the surface expression score in data set [2] is -2.96.
The like results for N39L were, in that order, -1.18, -0.612, -0.993, -1.15 and -1.87.
For A52_R53del, the cAMP reporter score in data set [1] (pH 5.5) was -1.32; in data set [1] (pH 6) it was -0.407; in data set [1] (pH 6, modulator: ogerin) it was -0.475; in data set [1] (pH 6.5, modulator: ogerin), -0.74. Besides, the surface expression score in data set [2] is -2.84.
